Test results as given in PMC5260975.
Results are given in words; binding and its absence hold for the method and conditions named. Binding seen in cells or lysates may run through a third protein. Some binding calls cover weakened binding; strength is not graded here. For part of these data: Tags and fused reporters may be left off the sequences shown.

How the values were obtained:
[1] = molecular target: T1, ankyrin-repeat-containing, SH3-domain-containing, and proline-rich region-containing protein 2 (ASPP2), endogenous (human (endogenous in HCC-LM3)) (UniProt Q13625); assay: co-IP; HCC-LM3 lysates, immunoprecipitated with anti-ASPP2, western blot; control cells, cells transfected with pASPP2 and ASPP2-silenced cells
T1 sequence: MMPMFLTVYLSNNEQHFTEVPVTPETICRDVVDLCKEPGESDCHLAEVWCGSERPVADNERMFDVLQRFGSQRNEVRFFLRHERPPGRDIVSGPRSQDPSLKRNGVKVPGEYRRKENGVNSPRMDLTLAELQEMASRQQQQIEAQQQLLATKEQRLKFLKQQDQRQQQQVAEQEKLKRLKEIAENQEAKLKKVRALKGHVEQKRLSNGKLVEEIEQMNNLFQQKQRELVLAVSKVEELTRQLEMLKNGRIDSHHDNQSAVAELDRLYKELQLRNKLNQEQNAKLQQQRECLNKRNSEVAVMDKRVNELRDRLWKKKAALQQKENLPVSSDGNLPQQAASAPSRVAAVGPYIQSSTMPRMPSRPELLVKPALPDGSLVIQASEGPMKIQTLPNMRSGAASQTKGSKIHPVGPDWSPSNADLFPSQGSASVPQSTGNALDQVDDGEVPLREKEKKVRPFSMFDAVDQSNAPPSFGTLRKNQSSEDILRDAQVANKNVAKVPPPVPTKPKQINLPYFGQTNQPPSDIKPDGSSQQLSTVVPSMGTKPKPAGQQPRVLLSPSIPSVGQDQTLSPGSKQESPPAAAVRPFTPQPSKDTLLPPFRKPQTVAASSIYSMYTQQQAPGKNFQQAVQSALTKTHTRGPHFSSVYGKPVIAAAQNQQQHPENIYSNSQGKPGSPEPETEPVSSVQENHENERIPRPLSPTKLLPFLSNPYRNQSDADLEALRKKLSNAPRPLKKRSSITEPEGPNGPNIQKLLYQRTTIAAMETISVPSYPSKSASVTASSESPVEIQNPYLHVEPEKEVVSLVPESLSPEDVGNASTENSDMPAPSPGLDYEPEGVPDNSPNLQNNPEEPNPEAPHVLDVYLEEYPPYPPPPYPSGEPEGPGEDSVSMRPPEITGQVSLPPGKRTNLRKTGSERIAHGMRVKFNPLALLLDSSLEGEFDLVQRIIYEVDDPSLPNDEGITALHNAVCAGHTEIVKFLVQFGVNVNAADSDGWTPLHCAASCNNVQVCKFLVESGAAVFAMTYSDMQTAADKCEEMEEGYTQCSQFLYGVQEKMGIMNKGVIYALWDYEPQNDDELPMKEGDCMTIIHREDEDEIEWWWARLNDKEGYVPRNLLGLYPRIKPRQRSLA

[2] = molecular target: p65/RelA, endogenous (human (endogenous in HCC-LM3)), Q04206; assay: co-IP; HCC-LM3 lysates, immunoprecipitated with anti-p65/RelA, western blot; with or without overexpression of ASPP2; conditions: remark: other sources report otherwise
[3] = molecular target: Flag-tagged BECN1[150-241] (UniProt Q14457); assay: co-IP; HEK293T co-transfected with Flag-tagged BECN1 (full length or deletion mutants) and ASPP2-V5(1-360), EBSS 6 h at 24 h after transfection; IP with anti-Flag, western blot

B1: IκBβ, endogenous (protein, UniProt Q15653 1-356)
chain: MAGVACLGKAADADEWCDSGLGSLGPDAAAPGGPGLGAELGPGLSWAPLVFGYVTEDGDTALHLAVIHQHEPFLDFLLGFSAGTEYMDLQNDLGQTALHLAAILGETSTVEKLYAAGAGLCVAERRGHTALHLACRVGAHACARALLQPRPRRPREAPDTYLAQGPDRTPDTNHTPVALYPDSDLEKEEEESEEDWKLQLEAENYEGHTPLHVAVIHKDVEMVRLLRDAGADLDKPEPTCGRSPLHLAVEAQAADVLELLLRAGANPAARMYGGRTPLGSAMLRPNPILARLLRAHGAPEPEGEDEKSGPCSSSSDSDSGDEGDEYDDIVVHSSRSQTRLPPTPASKPLPDDPRPV
**Q.** For B1, which binding [1] is on record?
**A.** binds

B2: IκBα, endogenous, P25963 1-317 (protein)
chain: MFQAAERPQEWAMEGPRDGLKKERLLDDRHDSGLDSMKDEEYEQMVKELQEIRLEPQEVPRGSEPWKQQLTEDGDSFLHLAIIHEEKALTMEVIRQVKGDLAFLNFQNNLQQTPLHLAVITNQPEIAEALLGAGCDPELRDFRGNTPLHLACEQGCLASVGVLTQSCTTPHLHSILKATNYNGHTCLHLASIHGYLGIVELLVSLGADVNAQEPCNGRTALHLAVDLQNPDLVSLLLKCGADVNRVTYQGYSPYQLTWGRPSTRIQQQLGQLTLENLQMLPESEDEESYDTESEFTEFTEDELPYDDCVFGGQRLTL
**Q.** For B2, which binding [2] is on record?
**A.** binds

B3: V5-tagged ASPP2(1-360) (domain or fragment, UniProt Q13625 1-360)
chain: MMPMFLTVYLSNNEQHFTEVPVTPETICRDVVDLCKEPGESDCHLAEVWCGSERPVADNERMFDVLQRFGSQRNEVRFFLRHERPPGRDIVSGPRSQDPSLKRNGVKVPGEYRRKENGVNSPRMDLTLAELQEMASRQQQQIEAQQQLLATKEQRLKFLKQQDQRQQQQVAEQEKLKRLKEIAENQEAKLKKVRALKGHVEQKRLSNGKLVEEIEQMNNLFQQKQRELVLAVSKVEELTRQLEMLKNGRIDSHHDNQSAVAELDRLYKELQLRNKLNQEQNAKLQQQRECLNKRNSEVAVMDKRVNELRDRLWKKKAALQQKENLPVSSDGNLPQQAASAPSRVAAVGPYIQSSTMPRMP
**Q.** B3 was tested. Which binding [3] did it give?
**A.** binds
